Structures can show the parent of a compound that is named as a salt.
Each molecule was assayed on isolated rat bladder (assay: Functional experiments using isolated rat bladder (carbachol concentration response)). Conditions: isolated rat bladder strips, carbachol-induced contraction.
Procedure: The bladder was cut into longitudinal strips (3 mm wide and 5-6 mm long) and mounted in 10 ml organ baths at 30° C., with one end connected to the base of the tissue holder and the other end connected to a polygraph through a force displacement transducer. […] At the end of equilibration period the stabilization of the tissue contractile response was assessed with 1 μmol/L of Carbachol consecutively for 2-3 times. Subsequently a cumulative concentration response curve to carbachol (10^−9 mol/L to 3×10^−5 mol/L) was obtained. After several washes, once the baseline was achieved, cumulative concentration response curve was obtained in presence of NCE (NCE added 20 min. prior to the second CRC).
`O=C(NC[C@H]1[C@@H]2CNC[C@@H]21)[C@@](O)(c1ccccc1)C1CCCC1` [Compound 6, (2S)-(1α,5α,6α)-N-[3-azabicyclo[3.1.0]hexyl-6-(aminomethyl)-yl]-2-hydroxy-2-cyclopentyl 2-phenyl acetamide hydrochloride salt] was tested, and the “Functional Assay pKB” value was 7.8 ± 0.09. With `O=C(NC[C@H]1[C@@H]2CNC[C@@H]21)C(O)(c1ccccc1)C1CCCC1` (mixture of isomers) [Compound 1, (2R,2S) (1α,5α,6α)-N-[3-azabicyclo[3.1.0]hexyl-6-(aminomethyl)-yl]-2-hydroxy-2-cyclopentyl-2-phenyl acetamide] the “Functional Assay pKB” value was 9.36 ± 0.17. With `COC(C(=O)NC[C@H]1[C@@H]2CNC[C@@H]21)(c1ccccc1)C1CCCC1` (mixture of isomers) [Compound 7, (2R,2S) (1α,5α,6α)-N-[3-azabicyclo[3.1.0]hexyl-6-(aminomethyl)-yl]-2-methoxy-2-cyclopentyl-2-phenyl acetamide] the “Functional Assay pKB” value was 8.56 ± 0.11. `O=C(NCC1C2CNCC21)C(O)(c1ccccc1)C1CCC1` [Compound 10, (2R,2S) (1α,5α,6α)-N-[3-azabicyclo[3.1.0]hexyl-6-(aminomethyl)-yl]-2-hydroxy-2-cyclobutyl-2-phenyl acetamide tartarate salt] was tested, and the “Functional Assay pKB” value was 8.73 ± 0.17. For `Cc1ccc(O)c([C@H](CCN(C(C)C)C(C)C)c2ccccc2)c1` [Tolterodine, reference compound], the “Functional Assay pKB” value was 8.86 ± 0.12. `O=C(NCC1C2CNCC21)C(O)(c1ccccc1)C1CCC(F)(F)C1` (mixture of isomers) [Compound 14, (2R,2S) (1α,5α,6α)-N-[3-azabicyclo[3.1.0]hexyl-6-(aminomethyl)-yl]-2-hydroxy-2-(3,3-difluorocyclopentyl)-2-phenyl acetamide tartarate salt] was tested, and the “Functional Assay pKB” value was 8.73 ± 0.18. With `O=C(NC[C@H]1[C@@H]2CNC[C@@H]21)[C@](O)(c1ccccc1)C1CCCC1` [Compound 4, (2R)-(1α,5α,6α)-N-[3-azabicyclo[3.1.0]hexyl-6-(aminomethyl)-yl]-2-hydroxy-2-cyclopentyl 2-phenyl acetamide hydrochloride salt] the “Functional Assay pKB” value was 9.28 ± 0.2.

Same assay, conditions: isolated rat bladder strips, carbachol-induced contraction; hydrochloride salt
In the case of `O=C(NC[C@H]1[C@@H]2CNC[C@@H]21)C(O)(c1ccccc1)C1CCCC1` (mixture of isomers) [Compound 2, (2R,2S) (1α,5α,6α)-N-[3-azabicyclo[3.1.0]hexyl-6-(aminomethyl)-yl]-2-hydroxy-2-cyclopentyl-2-phenyl acetamide hydrochloride salt], the “Functional Assay pKB” value was 9.16 ± 0.18.

— patent US7544708B2, “Azabicyclo derivatives as muscarinic receptor antagonists” (Ranbaxy Laboratories Limited, priority 2002, dated 2009)
